# Laboratory results from PubChem BioAssay AID1508649 (National Center for Advancing Translational Sciences (NCATS), 2021).
# About 830 (1.9%) of roughly 43,000 compounds were called active. This list was built around the results that the source calls inconclusive (neither active nor inactive); the mix of calls is not that of the screen. How the source made its calls: active means clear falling dose curves in both reporters; inconclusive means both reporters move, but less clearly or upward; inactive means either reporter flat; the % is the NLuc reporter signal. No potency is given beside an inconclusive call; the fits are too rough.
# Test: Cell-based coincidence reporter assay to measure PMP22 gene transcription in S16 Pmp22-F2sN cells - Primary screen
# Conditions: S16 Pmp22-F2sN Schwann cells (luciferase reporters placed in the Pmp22 gene), FLuc/NLuc coincidence luminescence, 24 h; measured here: NLuc reporter readout, at 57.5 µM (top of the series); activity change, negative = inhibition: at the top concentration
# Method in brief: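 qHTS, 1536-well. Cells seeded, compounds added by pin tool, 24 h 37C. Nano-Glo reagent 1 (lysis/FLuc), 10 min RT, read; Stop&Glo, 10 min RT, read NLuc.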
# On the % scale 0 is the no-effect control and ±100 the full control effect; potency means the concentration at half of the fitted maximal effect; tags describe the fitted curve by direction and shape.
Compound,Potency,"activity change, negative = inhibition"
O=c1cc(CN2CCN(S(=O)(=O)c3ccccc3)CC2)nc2sc(-c3ccccc3Cl)nn12,"inconclusive [phenotype inactive, single point]",
Cc1ccc(C)c(NC(=O)Cn2c(=O)n(Cc3ccc4c(c3)OCO4)c(=O)c3ccc(C(=O)NC4CCCCC4)cc32)c1,active: 4.01 µM,
Cc1ccc(CN(C(=O)COc2ccc(Cl)cc2Cl)C2CCS(=O)(=O)C2)o1 (stereo not given),"inconclusive [phenotype inactive, partial curve, poor fit]",
COc1ccc(/C=C/c2nc3ccccc3c(=O)n2-c2cccc(C(F)(F)F)c2)cc1,"inconclusive [phenotype inactive, single point]",
COc1cc2nc(Nc3ccc(F)cc3)nc(N)c2cc1OC,"inconclusive [phenotype inactive, single point]",
COc1cccc(-n2cc(C(=O)Nc3cc(C)c(Cl)cc3OC)c3ccccc3c2=O)c1,,inactive: -7.39%
CCN(c1ccccc1)S(=O)(=O)c1ccc2[nH]cc(C(=O)NCc3ccc(C)cc3)c(=O)c2c1,active: 13.4 µM,
Clc1ccc(CNc2cc(-c3ccccc3)nc3nncn23)cc1,"inconclusive [phenotype inactive, single point]",
CCc1ccc(C2CC(=O)NC(NC(=O)c3ccc(C(C)(C)C)cc3)=N2)cc1 (stereo not given),"inconclusive [phenotype inactive, single point]",
CCOc1ccc(C(CC(=O)Nc2cc(C)c(Cl)cc2OC)N2Cc3ccccc3C2=O)cc1OC (stereo not given),"inconclusive [phenotype inactive, single point]",
CCCN1CCN(c2ncnc3sc(C(=O)Nc4cccc(Cl)c4C)c(C)c23)CC1,"inconclusive [phenotype inactive, single point]",
CN(C(=O)c1ccc2c(c1)N(Cc1ccccc1F)C(=O)c1ccccc1S2(=O)=O)C1CCCCC1,"inconclusive [phenotype inactive, single point]",
CCN(CC)CCNC(=O)c1[nH]c2ccccc2c1Sc1ccc(Cl)cc1,"inconclusive [phenotype inactive, single point]",
CCOC(=O)C1CCCN(Cc2cn3c(-c4ccc(Br)cc4)nnc3s2)C1 (stereo not given),"inconclusive [phenotype inactive, partial curve, poor fit]",
COc1ccc(NC(=O)C(=O)NCC(c2cccnc2)N2CCc3ccccc3C2)cc1 (stereo not given),,inactive: -18.2%
Cc1ccccc1NC(=O)c1c(NC(=O)C(F)(F)F)sc2c1CCCCC2,active: 11.5 µM,
Cc1ccccc1NC(=O)CSc1nc2ccccc2c2nc(CCn3c(C)nc4ccccc43)nn12,"inconclusive [phenotype inactive, single point]",
CCOc1ccccc1Nc1sc(C(=O)c2ccc(Cl)cc2)c(N)c1C(=O)NCCc1ccccc1,"inconclusive [phenotype inactive, partial curve]",

Compound,Potency,"activity change, negative = inhibition"
COc1ccc(-c2nc3ccccc3o2)cc1NC(=O)c1ccc(OCC(C)C)cc1,"inconclusive [phenotype inactive, partial curve, poor fit]",
O=C(CN(c1cccc(C(F)(F)F)c1)S(=O)(=O)c1ccccc1)Nc1cccc(Cl)c1,"inconclusive [phenotype inactive, single point]",
COc1ccccc1CNC(=O)C(=O)NCC(c1cccnc1)N1CCN(c2ccc(F)cc2)CC1 (stereo not given),"inconclusive [phenotype inactive, single point]",
CCc1cccc(C)c1NC(=O)c1nc2ccccc2nc1N1CCCCC1,"inconclusive [phenotype inactive, partial curve]",
CCCCOC(=O)/C(C#N)=C/c1ccc(-c2ccc(Br)cc2)o1,"inconclusive [phenotype inactive, single point]",
COc1ccc(OC(=O)CSc2nnc(-c3ccc(F)cc3)o2)cc1,,inactive: -12.5%
O=C(NCCCN1CCCCC1)c1ccc2c(c1)sc1nc(-c3ccc(F)cc3)cn12,"inconclusive [phenotype inactive, single point]",
CCc1ccc(NC(=O)CSc2nc3c(sc4ccccc43)c(=O)n2CCN(CC)CC)cc1,"inconclusive [phenotype inactive, partial curve]",
COc1ccc(-c2noc(CN(C(=O)Cc3ccc(C)cc3)C(C)C)n2)cc1,"inconclusive [phenotype inactive, single point]",
Cc1ccc(CNC(=O)CN2C(=O)CSc3ccc(S(=O)(=O)N4CCCC4)cc32)cc1,,inactive: -3.83%
COc1ccc(-n2c(SCC(=O)NC3CCCCC3)nc3c([nH]c4ccccc43)c2=O)cc1,"inconclusive [phenotype inactive, partial curve]",
CC(=O)Nc1ccc(NC(=O)c2nc(SCc3ccccc3C)ncc2Cl)cc1,"inconclusive [phenotype inactive, single point]",
O=C(Nc1cccc(Cl)c1)c1cc(S(=O)(=O)N2CCCc3ccccc32)ccc1F,"inconclusive [phenotype inactive, partial curve, poor fit]",
CCOc1ccc(-c2nnc(SCC(=O)c3ccc(F)cc3)n2-c2ccccc2)cc1,"inconclusive [phenotype inactive, partial curve]",
CC(=O)N1CCCC1c1nc2ccccc2n1Cc1cc(C)ccc1C (stereo not given),"inconclusive [phenotype inactive, single point]",
CCCCN(CC)C(=O)C1CCC(CNS(=O)(=O)c2cccc3nsnc23)CC1 (stereo not given),"inconclusive [phenotype inactive, single point]",
COc1cc(OC)c(NC(=O)CN(C)S(=O)(=O)c2ccc3c(c2)CCCC(=O)N3)cc1Cl,"inconclusive [phenotype inactive, single point]",
